Some of the results follow.

T1: UNK ZnF1-3 (human, UniProt Q9C0B0 31-174)
T1 sequence: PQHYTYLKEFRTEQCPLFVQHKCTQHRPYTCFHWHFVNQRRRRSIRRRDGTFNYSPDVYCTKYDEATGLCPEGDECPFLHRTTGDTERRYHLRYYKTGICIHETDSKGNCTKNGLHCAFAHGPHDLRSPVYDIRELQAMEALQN

B1: 125022445_125022653_1941_CDS_ENSMUSG00000014444_ENSMUST00000067252|mouse|control|control (ssRNA)
RNA: GGGAGUUCUACAGUCCGACGAUCCAGCAGCGUCUGGGUCUGUGUGGGCUCAGUGUCGGCCACCGUGACCUCCAAAAGCGCCGCAGGCACCUUUUGCUUCUUCAGCAGCUUCUCCUUCACGAACUGACGCAGAAGGAGCCAGAACAACAGAGGAUUGAGCAUCA
B2: 86455588_86455959_2559_CDS_ENSMUSG00000013033_ENSMUST00000141158|mouse|control|control (ssRNA)
RNA: GGGAGUUCUACAGUCCGACGAUCCACUGAGGAGGACACGUCCCCAGCAUAGAUAGAGCCCCGUGUGUGGCGGGCCAGCUCACUGGCAAUGUUGGCCGCAUUCUCUCCACUCUUGAUCUUCUGGGCUACUUGGUUGACCCAGGGCAACAGAGGAUUGAGCAUCA
B3: chr2:176857102:176857103:-_ENSG00000144320_ENST00000272748|hu_hu|FALSE|FALSE (ssRNA)
RNA: GGGAGUUCUACAGUCCGACGAUCGGAAUACAGAAUUAAUCUUCCAACCCAUAAUUUUUGUAAUCUCUGAUUUUUUUCCCUAAAUUCUUCCAAUGCUUGAAUUUCCUUAUCUAUACUUUCUAGAACUUCUACAGUUGAAGGUUUCAACAGAGGAUUGAGCAUCA
B4: 15742733_15743951_717_CDS_ENSG00000079785_ENST00000233084|human|control|control (ssRNA)
RNA: GGGAGUUCUACAGUCCGACGAUCAAACUUGUCAGUACCUAGGUCCAAAGAGGCCUGCAUGGUAGACCACCCGACCCUGCAUAACCCUUGGUCAUGACAGGAUACUUCAUAGUAGUGUUUCCCUUUCAUUAAUCCUUUAGUAGCCAACAGAGGAUUGAGCAUCA
B5: chr1:78428520:78428521:-_ENSG00000162613_ENST00000370768|hu_mus|motif|central (ssRNA)
RNA: GGGAGUUCUACAGUCCGACGAUCCCCUAAAGGAUUUACUGGGCCCCCAAUCUUCUCUUCUAUGAGUUGUCGAGCAUAGUCGGUUUGCUGUGGAGUGCCCCGAAUUGUAAAUAACUUCAUAUUGGGAUCUGCAUUAGGUGGAGGCAACAGAGGAUUGAGCAUCA
B6: chr12:72179577:72179578:+_ENSG00000080371_ENST00000261263|hu_mus|FALSE|FALSE (ssRNA)
RNA: GGGAGUUCUACAGUCCGACGAUCGUUUAGCACUUAAGGUCUCUGCAGUGUUAUAAACGUAAUUGAAAAUACUGUUAAUUCUAUAACUCCAUUGGUAAAAUGAUGUGACUUGGAAUAUGGCAGUCUUCAUGUUGAGGGCAAUGACAACAGAGGAUUGAGCAUCA
B7: chrX:141883135:141883136:-_ENSMUSG00000041688_ENSMUST00000112835|mus_mus|motif|central (ssRNA)
RNA: GGGAGUUCUACAGUCCGACGAUCCUUGCAUCAAUCUGAUUUCUAACUUAACACAUCUCUAAACGUCUAUCUCCCUUACCGGAUACCCUCCCACCCUUAACUUCCCUAGACCCCUGAAAACUCAUCUUAAUGGUACUAUCUGUACAACAGAGGAUUGAGCAUCA
B8: 9950488_9954092_829_3pUTR_ENSG00000101558_ENST00000400000|human|control|control (ssRNA)
RNA: GGGAGUUCUACAGUCCGACGAUCGUUUAUCCGAAUGUGCUACCUUUCUGAGCCUUAAACCUUCAUCUCUCAGGUGCCGAUUUUCUUCUGAUAGCUUCAUCAUUUCUCCCUGAAGUCUUUUACACUCUUCCAUUAGUUUCCUUGCAACAGAGGAUUGAGCAUCA
B9: chr17:65740002:65740003:+_ENSG00000130935_ENST00000581375|hu_hu|hu_hu_hu_mus_False|88_108 (ssRNA)
RNA: GGGAGUUCUACAGUCCGACGAUCAACCCGUUCUUGCUCCCUGGACGCAAGAGUUCAUUCAUAUUAAAAAAAAUAUAUAUCCAUCAAGUUAGGUGUGGUGGCCACACCUUUACUCCCAGCACUUUGGGAGGUGGAUCUCUGAGUCAACAGAGGAUUGAGCAUCA
B10: chr15:64983782:64983783:-_ENSG00000180304_ENST00000326005|perfect_dup|motif|central (ssRNA)
RNA: GGGAGUUCUACAGUCCGACGAUCCCUGGAACAAUGUGCCUGCAGCACUGGAGCUGGGGACAGUUACUCAAAGGCAAAAUACGGCUGUCCUGGGUGUUUAUCAUCCUCGGCGGCUCUGCUCAGGGUGGGAGGAGGCGGCGCAGGCAACAGAGGAUUGAGCAUCA
B11: 20693198_20693318_2348_3pUTR_ENSMUSG00000043004_ENSMUST00000160013|mouse|control|control (ssRNA)
RNA: GGGAGUUCUACAGUCCGACGAUCUGCAUUUGUACAUUAAUAAUCAUUCCGGUACCCUCUUCUCUCCCACCCCAGGUCUGAACUUUAAUUGGACAUAGUUAACUCCUUUAGCUGAAAGCCCAUAAAAGAGUUAAGAGAAAUAUCCAACAGAGGAUUGAGCAUCA
B12: chr1:220276048:220276049:+_ENSG00000067704_ENST00000302637|hu_hu|hu_hu_hu_mus_True|48_68 (ssRNA)
RNA: GGGAGUUCUACAGUCCGACGAUCGCAAAUUGCCUGGUUGGCGGGAAUUGUCCAAGGCUGGGUGGUCCAGACCAAAACGCUAACAGGAGAUGAACCAUCUGUAAGAGACUCCAACUUCGGAGGAGGUCUCAGGAGGGGGAAUCUCAACAGAGGAUUGAGCAUCA
B13: chrX:98862621:98862622:+_ENSMUSG00000034160_ENSMUST00000044475|mus_hu|mus_mus_mus_hu_False|88_88 (ssRNA)
RNA: GGGAGUUCUACAGUCCGACGAUCCUGCAUCUCCUUUAGAGUGUUUCCCAUAUUGGAGUAGGCAUCAGCAAAGGUAGGACUGAUUCGAAUAGCCUCCUUAUAAUGCAUCAGAGCUUCCUGCAGUUUUCCCUGCUGCUGCAGUACCAACAGAGGAUUGAGCAUCA
B14: chr22:19452774:19452775:-_ENSG00000070010_ENST00000399523|hu_hu|hu_hu_hu_mus_False|48_88 (ssRNA)
RNA: GGGAGUUCUACAGUCCGACGAUCCUUCUCAUUGUAGUUGAUAGCAAUCACAUCCCCAGUCGUCAGACAGGCGAAGUUUCUCAAUGCGUUUUCUAAUACCGCUUUAGGGUUGGUAAUAUCCAGGAAGUCUGGGCUCUGAGGCUGCAACAGAGGAUUGAGCAUCA

In the assay the target is T1, UNK ZnF1-3. Nature of the assay: nsRBNS (natural sequence RNA bind-n-seq); RBNS binding buffer (assumed for nsRBNS): 25 mM Tris pH 7.5, 150 mM KCl, 3 mM MgCl2, 0.01% Triton X-100, 500 ug/ml BSA, 20 U/ml SUPERase-In, 4 C; UNK is unkempt and MSI1 is Musashi-1; names of the RNAs are library labels; protein concentration not given here; high values mean tight binding.
For the molecule B1, the binding signal was determined as 0.609 enrichment R.

Molecule B2 came in with a binding signal of 0.6 enrichment R.

On to B3, for which the binding signal came to 0.711 enrichment R.

Molecule B4 showed a binding signal of 0.821 enrichment R.

In turn, B5 yielded a binding signal of 1.32 enrichment R.

The molecule B6 showed a binding signal of 1.12 enrichment R.

Regarding B7, the binding signal turned out to be 2.29 enrichment R.

B8 displayed a binding signal of 0.306 enrichment R.

Turning to B9, the binding signal is 0.943 enrichment R.

For B10, the binding signal is 1.02 enrichment R.

Regarding B11, the binding signal turned out to be 1.53 enrichment R.

Turning to B12, the binding signal amounted to 1.83 enrichment R.

The molecule B13 displayed a binding signal of 0.851 enrichment R.

B14 returned a binding signal of 0.729 enrichment R.

The values above are taken from PMC12136788.
